Reference: the RNAGym collection of RNA variant scans (doi:10.7554/elife.90254)
Read counts are not given, so values of variants with three or more changes are uncertain.

B1: LINE1-mini (parent)
chain: GGCAGAGCUCAACACAGCGUGGCAAAGUGGCUGUGGCUAGACUGCC

Variants of: B1
Test: self-cleavage, relative activity (ratio to wild type); higher = more cleavage; in vitro, sequencing; the parent is a self-cleaving ribozyme

| Variant | self-cleavage |
| --- | --- |
| A26C G33A G35U C37U | 0.05 |
| A12G G17C G36U | 0.02 |
| G7C C15G G30U C31A A39C C46A | 0 |
| C3G G22C G29U G33A | 0.49 |
| C13A G30U A39C C46U | 0.02 |
| G2U C13U G22U C23U G36U | 0.1 |
| A24U G27A U38G | 0 |
| G1A G7A G22C A24U C46G | 0.24 |
| G7A G17C G29C | 0.06 |
| A24U A26G U34A U43C | 0.04 |
| G1A G2C U32G | 0.06 |
| C13U G22A A24C | 0.17 |
| C3U C10A A14U | 0.03 |
| C31A C45U C46G | 0.06 |
| U20G U38A A39C | 0.27 |
| G1U A11U C45A | 0 |
| A6C G7U C15U | 0.15 |
| G1U G22U U28A | 0.28 |
| A11C G30C C46U | 0.03 |
| A4G C37G C46U | 0.12 |
| G1A G19U G27A | 0.08 |
| G19C A26C U38A C46U | 0.06 |
| G5U C10A C13U G22U | 0.05 |
| G1A C8G G36C | 0.24 |

| Variant | self-cleavage |
| --- | --- |
| C10A G22U C23G U34G | 0.22 |
| G2U G7U C15U A25C G44U | 0.1 |
| C13A C37A G44C | 0.54 |
| C8A C13A A16G G35A C37A | 0.14 |
| A11U C13G A26U A39G | 0.02 |
| G7U C13A G33A | 0.12 |
| C15A C18G G21U A25G | 0.02 |
| A12U U20C G22A U28G | 0.08 |
| C23G A24C G36A | 0.09 |
| C10U A16G C18A C42A | 0.02 |
| C3A A12C G19C C45G | 0.02 |
| A24C G33C G35C C37A | 0.04 |
| C3G G29C C31A | 0.09 |
| G7A U9A C13U G36A | 0.52 |
| C8G C10G C31G | 0.01 |
| C10U C13G C15G U20C U28C | 0.04 |
| C13A C15A A39U G44A | 0.09 |
| C8U C13U G40U | 0.12 |
| C8U A11U G30A | 0.02 |
| C8G U9G C15A G19A C23G G27C U34A | 0.02 |
| C23A A24G G33C | 0.03 |
| C8U G19C G22C A41G | 0.04 |
| C8U C18A A25C | 0.07 |
| G5U G22A G27A | 0.03 |

| Variant | self-cleavage |
| --- | --- |
| G7U C23A U28C G30A G40U | 0.07 |
| A4U G7A C42G | 0.01 |
| G22A C31A C37U | 0.03 |
| C13U A16U G30U | 0.15 |
| A6U G21C G33A G40U | 0.33 |
| A25C A26C C37G A39G C42U | 0.05 |
| C13U C15G C31A C37U | 0.06 |
| U20C G21C G29U G35U | 0.02 |
| C10G G19C A24C G44A | 0.01 |
| C10U G17U C45G | 0 |
| C3U G5A G17C G22U G35U | 0.11 |
| A12G A25G C42A | 0.07 |
| G1U G5U U34C U38C C42A | 0.02 |
| G7U U32A G35U C42G | 0.04 |
| G1U U20G U28G | 0.15 |
| C18G U20A G22U G27U G30A C31U | 0.11 |
| A14G C15G G27C G35A | 0.01 |
| G5U A25C U34C | 0.03 |
| C10U G29U U32G U43C | 0.06 |
| A14G G30C G36A | 0.05 |
| A4C G29A G30U U34A | 0.04 |
| G1C G5U U38G | 0.01 |
| G21C G30A C37G | 0 |
| U9A U28A C42A | 0.23 |

| Variant | self-cleavage |
| --- | --- |
| C3U G22U G27U | 0.09 |
| G5U G17A G44A | 0.02 |
| G17A G19C A41G | 0.5 |
| G7A A14C A41C | 0.04 |
| A16C U20C G21C | 0.08 |
| A14C G22A A25G G29A C31U G35U | 0.04 |
| C15G A24C G33C | 0.26 |
| G7C A24G A26G G27U G30A G35A C46A | 0.08 |
| C3U A11U G19C G36C | 0.02 |
| C8G C13A U32G | 0.03 |
| A14G A16U G19A A25C A39C | 0 |
| A4U U9C C13A G22U G35U G40A C42U | 0.11 |
| G19A A39C C45A | 0.06 |
| G1C A4G G21U C31U | 0.02 |
| C3A A4C C10U G29C | 0.05 |
| A4U A6C C23U G36A C42G C45G | 0.02 |
| A4G A11G A24U C42A | 0.01 |
| C3A A6U G7C C46A | 0.07 |
| A6U C23G A39U | 0.25 |
| A4G G29A C45G | 0.38 |
| U28G G36A U38G C42A | 0 |
| C10A C37A U38C C45A | 0.04 |
| A4C C15U G17U G30U G33U | 0.17 |
| G5U U9C G21U A26G A41C | 0.01 |

| Variant | self-cleavage |
| --- | --- |
| C10A A12U G27U G35A | 0.03 |
| C37A G40C U43A | 0.08 |
| G7U G17U C18A | 0.1 |
| C8A U9G C13G | 0.02 |
| C3U U20C G21C C23G G36A C46A | 0.02 |
| A12C G19A G30U C37U | 0.01 |
| A4G C10G A12G U20A | 0.01 |
| A6U A26G G33U U34G C37A C45G | 0.11 |
| G22A C23A U34C G40U | 0.09 |
| G2U C8A G21C G36U | 0.04 |
| G2C C3U G5A | 0.07 |
| G2U C3U G22U G35A | 0.15 |
| C13G G22A G30C G35U | 0.15 |
| A16G G21U G27C C37G | 0.02 |
| A4U A16U C23U | 0.03 |
| G2C A26U C42A | 0.44 |
| C10G C31A U32A A39U A41C | 0 |
| G7U A12U A24U U28G G35A | 0.1 |
| A11C G17A G40A | 0.01 |
| C15G U20A G30C G44C | 0.01 |
| G7C G19A A41U | 0.21 |
| A6U G30C C31A | 0.39 |
| G5C G17U U28A G29U G35A | 0.04 |
| A12G G22U G33U | 0.01 |

| Variant | self-cleavage |
| --- | --- |
| U9C C18A G19U G22U | 0.02 |
| C3G C10G G21U A24U | 0.06 |
| C8A G19U C23G A25C | 0.08 |
| G1C C15U G21A G29U G36C A39U | 0.01 |
| G5A C8U C13A C37G U43C | 0.23 |
| G2U C8U A14U G22U | 0.04 |
| A25G U28A A39G C45U | 0.01 |
| A11U A25G G27U C42G | 0.01 |
| C10A A25G G30U | 0.36 |
| G7U A24C A41C U43G | 0.2 |
| U9A G17U G35C U38A | 0 |
| C10A A25G G27U U38G G44A | 0.02 |
| G7A U9A A25G G33U U38A | 0.17 |
| G7C U28C C31G A39G | 0 |
| C8G A16C A41U | 0.02 |
| C3A G7C U43C | 0.08 |
| G22C G29A U32C C46U | 0.04 |
| A4U C15A G22A | 0.14 |
| C23A C31A C45U | 0.22 |
| A6G C10A A12C C46A | 0.01 |
| C10A C15G A41C | 0 |
| A4G C37A A41G C45U | 0.04 |
| C23U U32C U34G G40U | 0.04 |
| G2U C8U G21U | 0.69 |

| Variant | self-cleavage |
| --- | --- |
| A4U C37U A41U C42G | 0.02 |
| A14G A16C G40C A41U G44A | 0.01 |
| U9G C10A C18G U20G C31G | 0 |
| A6G A25U G33A | 0.03 |
| A4C A6U C42G | 0.02 |
| C3G A4G C18A G29A G30C | 0.09 |
| A16U A26C A41C | 0 |
| G1C G36C G40U | 0.01 |
| A16U C31A A41C C45G | 0 |
| G5U G19U G35A | 0.1 |
| G2U A25U U32C G40U | 0.04 |
| C10A G19U G36A | 0.02 |
| G30U C31A U38C G44U | 0.09 |
| G5U A26G C37U G40C | 0.05 |
| C13G G22U U28C | 0.26 |
| A6U A12C A25G G29A | 0.02 |
| A6G G21A G29U A39C G44A | 0.47 |
| G17A U28A G33A | 0.04 |
| G17A U28C G30U A41C | 0.01 |
| G22C C37U C46A | 0.05 |
| C8G G21U C31A | 0.06 |
| G2A C3U C10A A12C A24U G30A | 0.07 |
| A11U G19U G21U | 0.07 |
